Measured values published in the RNAGym collection of RNA variant scans (doi:10.7554/elife.90254).
Read counts are not given, so values of variants with three or more changes are uncertain.

B1: LINE1-full (parent)
chain: UACGUAGGUGGUUUUCCCCUGAUAGUGCUAAGGGGGCCUGGAAGUUUGGACUGGGCAGAGCUCAACACAGCGUGGCAAAGUGGCUGUGGCUAGACUGCCUCUCUGGAUUCCUCGUCACUCAGCAGGGCAUCUCUGAGAGAAAUGCC

Variants of: B1
Assay: self-cleavage, relative activity (ratio to wild type); higher = more cleavage; in vitro, sequencing; the parent is a self-cleaving ribozyme
U13C A57G U100C C111U gave a self-cleavage of 2.67.
Variant U12G G44U U115C has a self-cleavage of 0.77.
For U13C A24G A92U U104C U132C, the self-cleavage was 0.84.
In the case of U12G U20C A67G U96C C99U, the self-cleavage is reported as 1.02.
In the case of U13A U47C A57G U73C U134A, the self-cleavage is reported as 0.
Variant U12G G70A U108C has a self-cleavage of 0.53.
U13C A69C U73C U112C gave a self-cleavage of 0.
U12G G25A A57G G97A A107U U115C showed a self-cleavage of 0.16.
Work on U13C A30G G36C A64C A65G yielded a self-cleavage of 0.
For U12G U14C U26G G83A, the self-cleavage was 0.
U12C U85C U112C gave a self-cleavage of 0.
For U12G U85A U130A, the self-cleavage was 0.29.
U13C A42U C99A A121U gave a self-cleavage of 0.19.
In the case of U12C U62A A67C U134A, the self-cleavage is reported as 0.17.
In the case of U13C A24G U47C, the self-cleavage is reported as 0.57.
For U13A A22G A43G G70A A117U A129G, the self-cleavage was 0.13.
With U12G U108C U115C the self-cleavage was 1.19.
With U12G A67G U96C the self-cleavage was 0.
In the case of U13C A22U G36U U108C, the self-cleavage is reported as 1.63.
Work on U12G U15C U96C yielded a self-cleavage of 0.65.
For U13C A22G U26C U52C G86A A142G, the self-cleavage was 0.28.
With U13C A50U A69U U73A A136G A138G U143C the self-cleavage was 0.02.
Variant U12G G33A U39A U115C A129G has a self-cleavage of 0.4.
For U12C U85A U143C, the self-cleavage was 0.01.
In the case of U12G A59G A141G, the self-cleavage is reported as 0.13.
With U12C U62A G88A the self-cleavage was 0.
With U13A A59G A67U the self-cleavage was 0.
For U13C A64G A107G U115C, the self-cleavage was 0.57.
Variant U12C U46C A59G G86A has a self-cleavage of 0.12.
In the case of U13A C16U A79G U87A, the self-cleavage is reported as 0.04.
Work on U12G A24U U104A yielded a self-cleavage of 1.19.
For U13A U20A A42U U81C A138C, the self-cleavage was 1.19.
Variant U13C A42G U52C G58A has a self-cleavage of 0.09.
U12C U87C U109C showed a self-cleavage of 0.66.
U12G G40U U46A A94G U115A A129G gave a self-cleavage of 0.12.
U12G A77U U134C gave a self-cleavage of 1.24.
U12C U104C U109C gave a self-cleavage of 0.57.
U12G G33U C71G gave a self-cleavage of 0.36.
With U13A G58U A92U U143A the self-cleavage was 0.07.
In the case of U13C A30G A140G, the self-cleavage is reported as 1.31.
Work on U12C U87C A141G U143G yielded a self-cleavage of 0.13.
U13C A43G U112C C120A G139A gave a self-cleavage of 0.82.
Variant U12G U15C U119G has a self-cleavage of 0.66.
With U13A A31C A77C A92G the self-cleavage was 0.19.
With U13C A43G C63U A117U U134G A142G the self-cleavage was 0.21.
Work on U12C U81C A140G yielded a self-cleavage of 2.19.
For U12G A65U U119C A140G A142G, the self-cleavage was 0.53.
With U13C A69G A142G the self-cleavage was 0.39.
Work on U12C U46C A77U yielded a self-cleavage of 1.5.
Variant U12C U47C A94G has a self-cleavage of 0.48.
U13A C99U A117G showed a self-cleavage of 0.53.
Variant U12G U85G C145A has a self-cleavage of 0.18.
U12C U45C U100A showed a self-cleavage of 0.75.
U13C A42G A69U A141G gave a self-cleavage of 0.13.
U12G U13A A24G A57G gave a self-cleavage of 0.81.
U13C A69U U130A showed a self-cleavage of 0.02.
With U12C U45G A64G U109C A117U the self-cleavage was 0.
In the case of U13A U14C U26C U115C, the self-cleavage is reported as 0.
U13C A50G U81C A117U showed a self-cleavage of 0.92.
With U13C A64G U115A A142G the self-cleavage was 0.53.
In the case of U12G U20C A65G U73C, the self-cleavage is reported as 0.
U12G U52A C66A gave a self-cleavage of 0.
With U12G U62C U87A A124G the self-cleavage was 0.23.
U13C A30G A57U A121G A141G gave a self-cleavage of 0.
In the case of U12G U45C U62A, the self-cleavage is reported as 0.24.
Work on U12G A43C A57U G82A U85C U87A U102C U109A A117U yielded a self-cleavage of 0.
In the case of U12G U20A U47A U62A A141G, the self-cleavage is reported as 0.04.
U12G A50U A67G gave a self-cleavage of 0.42.
In the case of U12C U47C U62C C113U, the self-cleavage is reported as 0.11.
U13A A79G U130A showed a self-cleavage of 0.61.
In the case of U13C A42U U62C U102C, the self-cleavage is reported as 0.14.
Variant U12G C38U U52A A77G U85A G97A U130A has a self-cleavage of 0.22.
In the case of U12G U81C A107G, the self-cleavage is reported as 1.84.
Work on U13A U20A G35A U100C C110U yielded a self-cleavage of 1.14.
U13C A42U U130C gave a self-cleavage of 0.
For U13A A43G C110U A124U, the self-cleavage was 1.24.
U13C A30G U62A gave a self-cleavage of 0.43.
With U13C A50G A141U the self-cleavage was 0.68.
For U12G U91C A92U U143A, the self-cleavage was 0.31.
Work on U13C A43G A142G yielded a self-cleavage of 1.42.
With U13A U62C A121U the self-cleavage was 0.05.
U12C U52C U91C showed a self-cleavage of 0.59.
U13A U14C A22U A107G gave a self-cleavage of 0.48.
Work on U13C A57G G74A yielded a self-cleavage of 0.08.
Work on U12G G58U U102A C110A U115C A124G yielded a self-cleavage of 0.1.
In the case of U12C U62A A94G U134C, the self-cleavage is reported as 0.
Variant U12C U46C A50G C56U A64G has a self-cleavage of 0.
For U13C A57U U104G A121G G135A, the self-cleavage was 0.
U12C U47C U130C gave a self-cleavage of 2.72.
For U12G G25A G27A C76U C131A, the self-cleavage was 1.16.
For U13C A31G U130A, the self-cleavage was 0.8.
With U13C A24U U104C U119C A140G the self-cleavage was 2.19.
Variant U13A A129U A136G has a self-cleavage of 1.13.
With U13C A67G U143C the self-cleavage was 0.42.
In the case of U12C U45A U46A A64G A77U, the self-cleavage is reported as 0.19.
With U12G C16A U109A the self-cleavage was 0.92.
U12C U45G U62C gave a self-cleavage of 0.25.
Work on U13C A50G A78G A142G yielded a self-cleavage of 0.71.
U12C U91C A141G gave a self-cleavage of 0.77.
U13C A42U A124G U132A gave a self-cleavage of 0.72.
U12G G34A U115A U132C showed a self-cleavage of 1.3.
Work on U12G U81A U100A C113U yielded a self-cleavage of 1.58.
Work on U12C U52A A121U A129U U134C A141G yielded a self-cleavage of 1.66.
U12C U81C U85C U134C showed a self-cleavage of 0.
Variant U13A G36A U85C A142G has a self-cleavage of 0.14.
For U12G U52A U100C, the self-cleavage was 0.49.
With U12C U45G A50U A57C the self-cleavage was 0.18.
U13A U45C U73A A92G showed a self-cleavage of 0.05.
For U12G U15C G41A A141G, the self-cleavage was 0.98.
Work on U13C A42C A121G yielded a self-cleavage of 1.31.
Work on U12G U15C U29C A57U A142U yielded a self-cleavage of 0.69.
With U13A A107U U130C U132C the self-cleavage was 1.34.
For U13A U52C U115C A138G, the self-cleavage was 1.6.
U12C U45C G49U showed a self-cleavage of 0.9.
U13C A65G A138G showed a self-cleavage of 0.07.
U12C U130C U143A gave a self-cleavage of 1.62.
Work on U12G U115C A138G U143C yielded a self-cleavage of 1.41.
For U12C U109A A140G U143C, the self-cleavage was 0.
With U13A A22G U52C A59U U132C the self-cleavage was 0.
U12G U13A U85C U100C showed a self-cleavage of 0.
U13C A57G A67G gave a self-cleavage of 0.75.
Variant U12C U39C U104C has a self-cleavage of 1.69.
Work on U13A A22G A117U yielded a self-cleavage of 0.95.
U13A A69U A140U gave a self-cleavage of 0.02.
Variant U12G A24G U85A U104C A138G A140G has a self-cleavage of 0.
Work on U13C A31U U39C A65G U143C yielded a self-cleavage of 0.77.
Work on U13C A67G A94G yielded a self-cleavage of 0.
With U12G U100A G126U A142G the self-cleavage was 0.94.
For U12C U52A A65G U96C, the self-cleavage was 0.
For U13A A57U A79G U91C G125C, the self-cleavage was 0.09.
Variant U13A A136G A140U has a self-cleavage of 1.11.
In the case of U13A A50U A64G U100C U134G, the self-cleavage is reported as 0.17.
U13C A30U A78G A136U A140G showed a self-cleavage of 0.
U13C A57U A64G U132C A142G showed a self-cleavage of 0.
Variant U12G U39A A69C has a self-cleavage of 0.29.
U13C A31G A65G A121U A138G gave a self-cleavage of 0.
U13C A42G A57G A94G gave a self-cleavage of 0.
U12G U20C A65G G114A showed a self-cleavage of 0.11.
In the case of U13A U115C G127A, the self-cleavage is reported as 1.12.
U12G G27C A138G A141G gave a self-cleavage of 0.9.
U13C A31U U39C U100C A107U U143C gave a self-cleavage of 0.
U12C U45C A57U A59G U62C gave a self-cleavage of 0.
U13C A31G A77G gave a self-cleavage of 0.46.
For U12G U15G C90U G125U, the self-cleavage was 0.13.
U12C U46C G122U A141G gave a self-cleavage of 1.24.
For U13C A67U U115C, the self-cleavage was 0.41.
U12G C38A U81G gave a self-cleavage of 0.92.
In the case of U13C A43G U62C U112C U119A A141G, the self-cleavage is reported as 0.
For U12G U102C A141G, the self-cleavage was 2.69.
For U13A A67G U73A A121G A136U, the self-cleavage was 0.56.
In the case of U13C A50G G127A, the self-cleavage is reported as 0.
With U12G G34U U96C U100A G139A the self-cleavage was 0.54.
For U13C A77U U108C, the self-cleavage was 1.88.
U13A U52C C90G C123U showed a self-cleavage of 0.05.
For U13A A22U C99U, the self-cleavage was 0.24.
U13C A42U U132C showed a self-cleavage of 1.33.
U12G U39A A65G showed a self-cleavage of 0.
Work on U12G U26C U81C A129U yielded a self-cleavage of 2.3.
In the case of U12C U85A G106U A142G, the self-cleavage is reported as 0.13.
In the case of U13C A50G C95U, the self-cleavage is reported as 0.
Work on U12G A59G A67G yielded a self-cleavage of 0.14.
U12C U73C A79U A94G U115A showed a self-cleavage of 1.38.
For U13A U26C U73C A79G C103A C145U, the self-cleavage was 1.23.
Variant U12C U46A A129U has a self-cleavage of 1.91.
U13A G27A U45G A78U A79U U102C U130A A136U gave a self-cleavage of 2.07.
With U12C U47C A65G the self-cleavage was 0.
U13C A30G U108C showed a self-cleavage of 1.84.
